Measured values published in the RNAGym collection of RNA variant scans (doi:10.7554/elife.90254).
Read counts are not given, so values of variants with three or more changes are uncertain.

B1: OR4K15 (parent)
chain: GUUAACGGUCAUAGGCCAUGGAAACUAGGAGCACCAUUUCGCUGCCAGUGAAGAAAUGAACAAAGAAAAUCUGGGCCAGGCAGGCAUCAAAAGAAAUAGUCUUGCGCUCAACCAGAAAGUCUGUAAUCAUUUUAAGGGUA

Variants of: B1
Test: self-cleavage, relative activity (ratio to wild type); higher = more cleavage; in vitro, sequencing; the parent is a self-cleaving ribozyme

Q: With UUUAACGGUCAUAGGCCAUGGAAACUAGGAGCACCAUUUCGCUGCCAGUGAAGAAGUGAACAAAGAAAAUCUGGGCCAGGCAGGCAUCAAAAGAAAUAGUCUUGCGCACAGCCAGAAAGUCUGUAAUCAUUUUAAGGGUA [G1U A56G U108A A111G] as the variant, how does the self-cleavage read?
A: 0.09

Q: With AUUAACGGUCAUAGGCCAUGGAAACUAGGAGCGCCAUUUCGCUGCCAGUGAAGAAAUGAACAAAGAAAAUCUGGGCCAGGCAGGCAUCAAAAGAAAUAGUCUUGCGCUCAACCAGAAAGUCUGUAAUCAUUUUAAGGGCA [G1A A33G U139C] as the variant, how does the self-cleavage read?
A: 2.25

Q: Which self-cleavage does the source give for GAUAACGGUCAUAGGCCAUGGAGACUAGGAGCACCAUUUCGCUGCCAGUGAAGAAAUGAACAAUGAAAAUCUGGGCCAGGCAGGCAUCAAAAGAAAUAGUCUUGCGCUCAACCAGAAAGUCUGCAAUCAUUUUAGGGGUA [U2A A23G A64U U124C A135G] here?
A: 0.45

Q: With GAUAACGGUCAUAGGCCCUGGAAACUAGGAGCACCAUAUCGCUGCCAGUGAAGAAAUGAACAGAGAAAAUCUGGGCCAGGCAGGCAUCAAAAGAAAUAGUCUUGCGCUCAACCAGAAAGUCUGUAAUCAUUUUAAGGGUA [U2A A18C U38A A63G] as the variant, how does the self-cleavage read?
A: 0.7

Q: For AUUAACGGUCAUAGGCCAUGGGAACUAGGAGCACCAUUUCGCUGCCAGUGGUGAAAUGAACAAAGAAAAUCCGGGCCAGGCAGGCAUCAAAAGAAAUAGUCUUGCGCUCAACCAGAGAGUCUGUAAUCAUUUUAAGGGUA [G1A A22G A51G A52U U72C A117G], which self-cleavage is on record?
A: 0.19

Q: With GAUAACGGUCAUAGGCCAUGGAGGCUAGGAGCACCAUUUCGCUGCCAGUGAAGAAAUGAACAAAGAAAAUCUGGGCCAGGCGGGCAUCAAAAGAAAUAGUCUUGCGCUCAACCAGAAAGUCUGUAAUCAUUUUAAGGGUA [U2A A23G A24G A82G] as the variant, how does the self-cleavage read?
A: 0.45

Q: With AUUAACGGUCAUAGGCCAUGGAAACUAGGAGCACCAUUUCGCUGCCAGUGGAGGAAUGAACAAAGAAAAUCUGGGCCAGGCAGGCAUCAAAAGAAAUAGUCUUGCGCUCAACCAGUAAGUCUGUAAUCAUUUUAAGGGUA [G1A A51G A54G A116U] as the variant, how does the self-cleavage read?
A: 0.92

Q: For UUUAACGGUCAUAGGCCAUGGAAACUAGGAGCACCAUUUCGCUGCCAGUGAAGAAAUGAACAAAGAGAAUCUGGGCAAGGCAGGCAUCAAAAGAAAUAGUCUUGCGCUCAACCAGAAAGUCCGUAAUCAUUUUAAGGGUA [G1U A67G C77A U122C], which self-cleavage is on record?
A: 0.78

Q: With GAUAGCGGACAUAGGCCAUGGAAACUAGGAGCACCAUCUCGCUGCCAGUGAAGAUAUGAACAAAGAAAAUCUGGGCCAGGCAGGCAUUAAAAGAAGUAGUCUUGCGCUCAACCAGAAAGUCUGUAAUCAUUUUAAGGGUA [U2A A5G U9A U38C A55U C88U A96G] as the variant, how does the self-cleavage read?
A: 1.11

Q: Which self-cleavage does the source give for AUUAACGGUCAUAGGCCAUGGAAACUAGGAGCACCAUUUCGCUGCCAGUGAAGGAAUGAACAAAGAAAAUCUGUGCCAGGCAGGCAUCAAAAGAAAUAGUCUUGCGCUCAACCAGAGAGUCUGUAAUCAUUUUAAGGGUA [G1A A54G G74U A117G] here?
A: 0.3

Q: With GAUAACGGUCAUAGGCCUUGGAAACUAGGAGCACCAUUUCGCUGCCAGUGAAGAAAUGAACAGAGAAAAUCUGGGCCAGGCAGGCAUCAAAAGAAAUAGUCUUGCGCUCAACCAGAAAGUCUGUAAUCAUUUUAAGGGUA [U2A A18U A63G] as the variant, how does the self-cleavage read?
A: 0.96

Q: Which self-cleavage does the source give for AUUAACGGUCAUAGGCCAUGGAUACUAGGAGCACCAUUUCGCUGCCAGUGAAGAAAUGAACAAAGAAAAUCUGGGCCAGGCAGGCAUCAAAGGAAAUAGUCUUGCGCUCAACCAGAAAGUCUGUAAUCAUUUUAAGGGUA [G1A A23U A92G] here?
A: 1.67

Q: With AUUAACGGUCAUAGGCCAUGGAAACUAGGAGCACCAUUUCGCUACCAGUGAAGAAAUGAACAAAGAAAAUCUGGGCCAGGCAGGCAUCAAAAGAAAUAGUCUUGCGCUCGACCAGAAAGUCUGUAAUCAUUUUAAGGGUA [G1A G44A A110G] as the variant, how does the self-cleavage read?
A: 0.24

Q: With AUUAACGGUCAUAGGCCAUGGAAGCUGGGAGCACCAUUUCGCUGCCAGUGAAGAAAUGAACAAAGAAAAUCUGGGCCAGGCAGGCAUCAAAAGAAAUAGUCUUGCGUUCAACCAGAAAGUCUGUAAUCAUUUUAAGGGUA [G1A A24G A27G C107U] as the variant, how does the self-cleavage read?
A: 0.03

Q: Which self-cleavage does the source give for AUUAACGGUCAUAGGCCAUGGAAACUAGGAGCACCAUUUCGCUGCCGGUGAAGAAAUGAACAAAGAAAAUCUGGGCCAGGCAGGCAUCAAAAGAAAUAGUCUUGCGCUCAACCAGAAGGUCUGUAAUCAUUUUAAGGAUA [G1A A47G A118G G138A] here?
A: 1.35

Q: With AUUAACGGUCACAGGCCAUGGAAACUAGGAGCACCAUUUCGCUGCCAGUGAAGAAAUGAACAAAGAAAAUCUGGGCCAGACAGGCAACAAAAGAAAUAGUCUUGCGCCCAACCAGAAAGUCUGUAAUCAUUUUAAGGGUA [G1A U12C G80A U87A U108C] as the variant, how does the self-cleavage read?
A: 0.07

Q: Which self-cleavage does the source give for AUUAACGGUCAUAGGCCAUGGAAACUAGGAGCACCAUUUCGCUGCCAGUGAAGAAAUGAACAAAGAAAAUCUGGGCCAGGCUGGCAUCAAAGGAAAUAGUCUUGCGCUCAACCUGAAAGUCUGUAAUCAUUUUAAGGGUA [G1A A82U A92G A114U] here?
A: 0.08

Q: Which self-cleavage does the source give for UUUAACGGUCAUGGGCCAUGGAAACUAGGAGCACCAUUUCGCUGCCAGUGAAGAAAUGAACAAAGAAAAUCUGGGCCAGGCAGGCAUCAAAAGAAAUAGUCUUGCGCUCAACCAGAAAGUCUGUAAUCAUUUUAAGGGUG [G1U A13G A140G] here?
A: 1.43

Q: For CUUAACGGUCAUAGGCCGUGGAAACUAGGAGCACCAUUUCGCUGCCAGUGAAGAAAUGAACAAAGAAAAUCUGGGCCAGGCAGGCAUCAAAAGAAAUAGUCUCGCGCUCAACCAGAAAGUCUGUAAUCAUUUUAAGGGUA [G1C A18G U103C], which self-cleavage is on record?
A: 0.36

Q: With AUUAACGGUCAUAGGCCAUGGAAACUAGGAGCACCAUUUCGCUGCCAGUGAAGAAAUGAACAAAGAAAACCUGGGCCAGGCAGGCACCAAAAGAAAUAGUCUUGCGCUCAACCAGAAAGUCUGUAAUCAUUUUAAGGGUA [G1A U70C U87C] as the variant, how does the self-cleavage read?
A: 1.34
